Experimental data taken from US10314820B2, “Imidazole-based heterocyclic compounds” (priority 2014, dated 2019).
At least one read-out could not be matched to a standard name with certainty.

Assays:
Type in all cases: cell-based
[1] = system: Streptococcus pneumoniae (Chester, ATCC49619); assay: Broth microdilution MIC assay, Streptococcus pneumoniae; conditions: MIC score; for Antibacterial activity Streptococcus pneumoniae: Table AA; for antibacterial activity SP: Table BB
[2] = system: penicillin-, erythromycin- and tetracycline-resistant Streptococcus pneumoniae (ATCC 700677), ARSP; conditions: Table BB; MIC score
[3] = system: Mycobacterium smegmatis (mc(2)155, ATCC700084); assay: Broth microdilution MIC assay, Mycobacterium smegmatis; conditions: Table BB; MIC score; 3 days incubation
[4] = system: Staphylococcus aureus MSSA (Newman); assay: Broth microdilution MIC assay, MSSA; conditions: MIC score; for Antibacterial activity Staphylococcus aureus (MSSA): Table AA; for antibacterial activity MSSA: Table BB
[5] = system: Staphylococcus aureus MRSA (COL); conditions: MIC score; for Antibacterial activity Staphylococcus aureus (MRSA): Table AA; for antibacterial activity MRSA: Table BB
[6] = system: Staphylococcus epidermidis (PCI 1200, ATCC12228); assay: Broth microdilution MIC assay, Staphylococcus epidermidis; conditions: Table BB; MIC score
[7] = system: vancomycin-resistant Enterococcus faecium (ATCC51559); conditions: Table BB; MIC score
[8] = system: Enterococcus faecalis (ATCC29212); assay: Broth microdilution MIC assay, Enterococcus faecalis; conditions: Table BB; MIC score
[9] = system: vancomycin-resistant Enterococcus faecalis (ATCC51575); conditions: Table BB; MIC score

Structure (SMILES): Cc1[nH]c(-c2ccc(-c3ccc(Cl)cc3)s2)nc1-c1ccccc1 [Compound 6]
- Antibacterial activity Streptococcus pneumoniae [1]: 3 (the compound has an MIC100 of 2-5 μg/ml)
- antibacterial activity SP [1]: 3 (the compound has an MIC100 of 2-5 μg/ml)
- antibacterial activity ARSP [2]: 3 (the compound has an MIC100 of 2-5 μg/ml)
- antibacterial activity MS [3]: 2 (the compound has an MIC100 of 11-20 μg/ml)

Structure (SMILES): Cc1[nH]c(-c2ccc(-c3ccccc3F)s2)nc1-c1ccccc1 [Compound 15]
- Antibacterial activity Streptococcus pneumoniae [1]: 3 (the compound has an MIC100 of 2-5 μg/ml)
- antibacterial activity SP [1]: 3 (the compound has an MIC100 of 2-5 μg/ml)
- antibacterial activity ARSP [2]: 3 (the compound has an MIC100 of 2-5 μg/ml)
- antibacterial activity MS [3]: 2 (the compound has an MIC100 of 11-20 μg/ml)

Structure (SMILES): Cc1nc(-c2ccc(-c3ccc(Cl)cc3Cl)o2)[nH]c1-c1ccc(F)cc1 [Compound 16]
- Antibacterial activity Streptococcus pneumoniae [1]: 3 (the compound has an MIC100 of 2-5 μg/ml)
- antibacterial activity SP [1]: 3 (the compound has an MIC100 of 2-5 μg/ml)
- Antibacterial activity Staphylococcus aureus (MSSA) [4]: 4 (the compound has an MIC of 1 μg/ml to 3 μg/ml for preventing staphylococcal growth 100% (MIC100))
- antibacterial activity MSSA [4]: 4 (the compound has an MIC of 1 μg/ml to 3 μg/ml for preventing bacterial growth 100% (MIC100))
- Antibacterial activity Staphylococcus aureus (MRSA) [5]: 4 (the compound has an MIC of 1 μg/ml to 3 μg/ml for preventing staphylococcal growth 100% (MIC100))
- antibacterial activity MRSA [5]: 4 (the compound has an MIC of 1 μg/ml to 3 μg/ml for preventing bacterial growth 100% (MIC100))
- antibacterial activity ARSP [2]: 4 (the compound has an MIC of 1 μg/ml or less for preventing streptococcal growth 100% (MIC100))
- antibacterial activity SE [6]: 3 (the compound has an MIC100 of 3-10 μg/ml)
- antibacterial activity VREFm [7]: 1 (the compound has an MIC100 of 20-50 μg/ml or an MIC50 of <10 μg/ml)
- antibacterial activity EFs [8]: 1 (the compound has an MIC100 of 20-50 μg/ml or an MIC50 of <10 μg/ml)
- antibacterial activity VREFs [9]: 1 (the compound has an MIC100 of 20-50 μg/ml or an MIC50 of <10 μg/ml)

Structure (SMILES): Cc1[nH]c(-c2ccc(-c3ccccc3OC(F)(F)F)o2)nc1-c1ccc(F)cc1 [Compound 23, 4-(4-Fluoro-phenyl)-5-methyl-2-[5-(2-trifluoromethoxy-phenyl)-furan-2-yl]-1H-imidazole]
- Antibacterial activity Streptococcus pneumoniae [1]: 4 (the compound has an MIC of 1 μg/ml or less for preventing streptococcal growth 100% (MIC100))
- antibacterial activity SP [1]: 4 (the compound has an MIC of 1 μg/ml or less for preventing streptococcal growth 100% (MIC100))
- Antibacterial activity Staphylococcus aureus (MSSA) [4]: 3 (the compound has an MIC100 of 3-10 μg/ml)
- antibacterial activity MSSA [4]: 4 (the compound has an MIC of 1 μg/ml to 3 μg/ml for preventing bacterial growth 100% (MIC100))
- Antibacterial activity Staphylococcus aureus (MRSA) [5]: 4 (the compound has an MIC of 1 μg/ml to 3 μg/ml for preventing staphylococcal growth 100% (MIC100))
- antibacterial activity MRSA [5]: 3 (the compound has an MIC100 of 3-10 μg/ml)
- antibacterial activity ARSP [2]: 4 (the compound has an MIC of 1 μg/ml or less for preventing streptococcal growth 100% (MIC100))
- antibacterial activity SE [6]: 1 (the compound has an MIC100 of 20-50 μg/ml or an MIC50 of <10 μg/ml)
- antibacterial activity VREFm [7]: 1 (the compound has an MIC100 of 20-50 μg/ml or an MIC50 of <10 μg/ml)
- antibacterial activity EFs [8]: 1 (the compound has an MIC100 of 20-50 μg/ml or an MIC50 of <10 μg/ml)
- antibacterial activity VREFs [9]: 1 (the compound has an MIC100 of 20-50 μg/ml or an MIC50 of <10 μg/ml)

Structure (SMILES): Cc1[nH]c(-c2ccc(-c3cccc(C(F)(F)F)c3)o2)nc1-c1ccc(F)cc1 [Compound 38]
- Antibacterial activity Streptococcus pneumoniae [1]: 3 (the compound has an MIC100 of 2-5 μg/ml)
- antibacterial activity SP [1]: 3 (the compound has an MIC100 of 2-5 μg/ml)
- Antibacterial activity Staphylococcus aureus (MSSA) [4]: 4 (the compound has an MIC of 1 μg/ml to 3 μg/ml for preventing staphylococcal growth 100% (MIC100))
- antibacterial activity MSSA [4]: 4 (the compound has an MIC of 1 μg/ml to 3 μg/ml for preventing bacterial growth 100% (MIC100))
- Antibacterial activity Staphylococcus aureus (MRSA) [5]: 4 (the compound has an MIC of 1 μg/ml to 3 μg/ml for preventing staphylococcal growth 100% (MIC100))
- antibacterial activity MRSA [5]: 4 (the compound has an MIC of 1 μg/ml to 3 μg/ml for preventing bacterial growth 100% (MIC100))
- antibacterial activity ARSP [2]: 4 (the compound has an MIC of 1 μg/ml or less for preventing streptococcal growth 100% (MIC100))
- antibacterial activity SE [6]: 3 (the compound has an MIC100 of 3-10 μg/ml)
- antibacterial activity VREFm [7]: 1 (the compound has an MIC100 of 20-50 μg/ml or an MIC50 of <10 μg/ml)
- antibacterial activity EFs [8]: 1 (the compound has an MIC100 of 20-50 μg/ml or an MIC50 of <10 μg/ml)

Structure (SMILES): Cc1nc(-c2ccc(-c3ccc(Cl)c(OC(F)(F)F)c3)o2)[nH]c1-c1ccc(F)cc1 [Compound 43]
- Antibacterial activity Streptococcus pneumoniae [1]: 4 (the compound has an MIC of 1 μg/ml or less for preventing streptococcal growth 100% (MIC100))
- antibacterial activity SP [1]: 4 (the compound has an MIC of 1 μg/ml or less for preventing streptococcal growth 100% (MIC100))
- Antibacterial activity Staphylococcus aureus (MSSA) [4]: 3 (the compound has an MIC100 of 3-10 μg/ml)
- antibacterial activity MSSA [4]: 3 (the compound has an MIC100 of 3-10 μg/ml)
- Antibacterial activity Staphylococcus aureus (MRSA) [5]: 2 (the compound has an MIC100 of 11-20 μg/ml)
- antibacterial activity MRSA [5]: 2 (the compound has an MIC100 of 11-20 μg/ml)
- antibacterial activity ARSP [2]: 4 (the compound has an MIC of 1 μg/ml or less for preventing streptococcal growth 100% (MIC100))
- antibacterial activity SE [6]: 1 (the compound has an MIC100 of 20-50 μg/ml or an MIC50 of <10 μg/ml)
- antibacterial activity EFs [8]: 1 (the compound has an MIC100 of 20-50 μg/ml or an MIC50 of <10 μg/ml)

Structure (SMILES): Cc1[nH]c(-c2ccc(-c3ccc(C(F)(F)F)cc3)s2)nc1-c1ccccc1 [Compound 46]
- Antibacterial activity Streptococcus pneumoniae [1]: 3 (the compound has an MIC100 of 2-5 μg/ml)
- antibacterial activity SP [1]: 3 (the compound has an MIC100 of 2-5 μg/ml)
- Antibacterial activity Staphylococcus aureus (MSSA) [4]: 2 (the compound has an MIC100 of 11-20 μg/ml)
- antibacterial activity MSSA [4]: 2 (the compound has an MIC100 of 11-20 μg/ml)
- antibacterial activity ARSP [2]: 3 (the compound has an MIC100 of 2-5 μg/ml)
- antibacterial activity MS [3]: 1 (the compound has an MIC100 of 20-50 μg/ml or an MIC50 of <10 μg/ml)

Structure (SMILES): Cc1[nH]c(-c2ccc(-c3ccc(OC(F)(F)F)cc3)o2)nc1-c1ccc(Cl)cc1 [Compound 48]
- Antibacterial activity Streptococcus pneumoniae [1]: 4 (the compound has an MIC of 1 μg/ml or less for preventing streptococcal growth 100% (MIC100))
- antibacterial activity SP [1]: 4 (the compound has an MIC of 1 μg/ml or less for preventing streptococcal growth 100% (MIC100))
- Antibacterial activity Staphylococcus aureus (MSSA) [4]: 3 (the compound has an MIC100 of 3-10 μg/ml)
- antibacterial activity MSSA [4]: 3 (the compound has an MIC100 of 3-10 μg/ml)
- Antibacterial activity Staphylococcus aureus (MRSA) [5]: 3 (the compound has an MIC100 of 3-10 μg/ml)
- antibacterial activity MRSA [5]: 3 (the compound has an MIC100 of 3-10 μg/ml)
- antibacterial activity ARSP [2]: 4 (the compound has an MIC of 1 μg/ml or less for preventing streptococcal growth 100% (MIC100))
- antibacterial activity SE [6]: 2 (the compound has an MIC100 of 11-20 μg/ml)
- antibacterial activity VREFm [7]: 1 (the compound has an MIC100 of 20-50 μg/ml or an MIC50 of <10 μg/ml)
- antibacterial activity EFs [8]: 1 (the compound has an MIC100 of 20-50 μg/ml or an MIC50 of <10 μg/ml)
- antibacterial activity VREFs [9]: 1 (the compound has an MIC100 of 20-50 μg/ml or an MIC50 of <10 μg/ml)

Structure (SMILES): Cc1[nH]c(-c2ccc(-c3ccc(OC(F)(F)F)c(Cl)c3)o2)nc1-c1ccc(Cl)cc1 [Compound 50]
- antibacterial activity SP [1]: 3 (the compound has an MIC100 of 2-5 μg/ml)
- antibacterial activity MSSA [4]: 3 (the compound has an MIC100 of 3-10 μg/ml)
- antibacterial activity MRSA [5]: 2 (the compound has an MIC100 of 11-20 μg/ml)
- antibacterial activity SE [6]: 1 (the compound has an MIC100 of 20-50 μg/ml or an MIC50 of <10 μg/ml)

Structure (SMILES): FC(F)(F)Oc1ccccc1-c1ccc(-c2ncc(-c3ccccc3)[nH]2)o1 [Compound 63]
- Antibacterial activity Streptococcus pneumoniae [1]: 3 (the compound has an MIC100 of 2-5 μg/ml)
- antibacterial activity SP [1]: 3 (the compound has an MIC100 of 2-5 μg/ml)
- Antibacterial activity Staphylococcus aureus (MSSA) [4]: 3 (the compound has an MIC100 of 3-10 μg/ml)
- antibacterial activity MSSA [4]: 3 (the compound has an MIC100 of 3-10 μg/ml)
- Antibacterial activity Staphylococcus aureus (MRSA) [5]: 3 (the compound has an MIC100 of 3-10 μg/ml)
- antibacterial activity MRSA [5]: 3 (the compound has an MIC100 of 3-10 μg/ml)
- antibacterial activity SE [6]: 3 (the compound has an MIC100 of 3-10 μg/ml)

Structure (SMILES): FC(F)(F)Oc1ccccc1-c1ccc(-c2nc(-c3ccccc3Cl)c[nH]2)o1 [Compound 67]
- Antibacterial activity Streptococcus pneumoniae [1]: 3 (the compound has an MIC100 of 2-5 μg/ml)
- antibacterial activity SP [1]: 3 (the compound has an MIC100 of 2-5 μg/ml)
- antibacterial activity ARSP [2]: 2 (the compound has an MIC100 of 6-10 μg/ml)
- antibacterial activity SE [6]: 2 (the compound has an MIC100 of 11-20 μg/ml)

Structure (SMILES): Cc1ccccc1-c1c[nH]c(-c2ccc(-c3ccccc3C(F)(F)F)o2)n1 [Compound 69]
- Antibacterial activity Streptococcus pneumoniae [1]: 4 (the compound has an MIC of 1 μg/ml or less for preventing streptococcal growth 100% (MIC100))
- antibacterial activity SP [1]: 4 (the compound has an MIC of 1 μg/ml or less for preventing streptococcal growth 100% (MIC100))
- Antibacterial activity Staphylococcus aureus (MSSA) [4]: 3 (the compound has an MIC100 of 3-10 μg/ml)
- antibacterial activity MSSA [4]: 2 (the compound has an MIC100 of 11-20 μg/ml)
- Antibacterial activity Staphylococcus aureus (MRSA) [5]: 2 (the compound has an MIC100 of 11-20 μg/ml)
- antibacterial activity ARSP [2]: 3 (the compound has an MIC100 of 2-5 μg/ml)
- antibacterial activity VREFm [7]: 1 (the compound has an MIC100 of 20-50 μg/ml or an MIC50 of <10 μg/ml)
- antibacterial activity MS [3]: 2 (the compound has an MIC100 of 11-20 μg/ml)
